Reference: the supplement of paper PMC12217912
The list shows a part of the results. Sequences were assembled here from the parent chain. Values near 0.05 are background.

B1: TEV protease; numbered along this chain (parent)
chain: MGESLFKGPRDYNPISSSICHLTNESDGHTTSLYGIGFGPFIITNKHLFRRNNGTLVVQSLHGVFKVKDTTTLQQHLVDGRDMIIIRMPKDFPPFPQKLKFREPQREERICLVTTNFQTKSMSSMVSDTSCTFPSGDGIFWKHWIQTKDGQCGSPLVSTRDGFIVGIHSASNFTNTNNYFTSVPKNFMELLTNQEAQQWVSGWRLNADSVLWGGHKVFMVKPEEPFQPVKEATQL

Variants of: B1
Test: raw area under fraction-flipped curve 0-4 h after induction (AUC4h, not background-subtracted), DNA-recorder readout of cleavage of the substrate (dimensionless); higher = more cleavage of the substrate by the protease variant
Settings: temperature: 34 °C; time window: 0-4 h after rhamnose induction
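Further: Bxb1 expression induced with 0.2% (w/v) L-rhamnose at OD600 near 0.5, cultures sampled hourly, flipped fraction per protease–substrate barcode pair counted by paired-end Illumina sequencing.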

Variant	area with substrate ENLYFQC	area with substrate ENLYFQD	area with substrate ENLYFQG	area with substrate ENLYFQK	area with substrate ENLYFQL	area with substrate ENLYFQM	area with substrate ENLYFQN	area with substrate ENLYFQR	area with substrate ENLYFQS	area with substrate ENLYFQT	area with substrate ENLYFQW	area with substrate ENLYFQY	area with substrate ENLYFQH	area with substrate ENLYFQI	area with substrate ENLYFQP	area with substrate ENLYFQQ	area with substrate ENLYFQV	area with substrate ENLYFQF	area with substrate ENLYFQE
MGESLFKGPRDYNPISSSICHLTNESDGHTTSLYGIGFGPFIITNKHLFRRNNGTLVVQSLHGVFKVKDTTTLQQHLVDGRDMIIIRMPKDFPPFPQKLKFREPQREERICLVTTNFQTKSMSSMVSDQSCTFPSGDGIFWKHWIQTKDGQCGSPLVSTRDGFIVGIHSASNFTNTNNYFTSVPKNFMELLTNQEAQQWVSGWRLNADSVLWGGHKVFMVKPEEPFQPVKEATQL [T129Q]	0.109	0.0685	0.0894	0.0815	0.0653	0.0945	0.0917	0.0737	0.0977	0.0756	0.066	0.0862	–	–	–	–	–	–	–
MGESLFKGPRDYNPISSSICHLTNESDGHTTSLYGIGFGPFIITNKHLFRRNNGTLVVQSLHGVFKVKDTTTLQQHLVDGRDMIIIRMPKDFPPFPQKLKFREPQREERICLVTTNFQTKSMSSMVSDTSCTFPAGDGIFWKHWIQTKDGQCGSPLVSTRDGFIVGIHSASNFTNTNNYFTSVPKNFMELLTNQEAQQWVSGWRLNADSVLWGGHKVFMVKPEEPFQPVKEATQL [S135A]	0.0868	0.0721	0.0716	0.0668	0.0414	0.0638	0.0542	0.0558	0.0793	0.0694	0.0567	–	0.0622	0.0649	0.0979	0.0604	0.0496	–	–
MGESLFKGPRDYNPISSSICHLTNESDGHTTSLYGIGFGPFIITNKHLFRRNNGTLVVQSLHGVFKVKDTTTLQQHLVDGRDMIIIRMPKDFPPFPQKLKFREPQREERICLVTTNFQTKSMSSMVSDTSCTFPSGDGICWKHWIQTKDGQCGSPLVSTRDGFIVGIHSASNFTNTNNYFTSVPKNFMELLTNQEAQQWVSGWRLNADSVLWGGHKVFMVKPEEPFQPVKEATQL [F140C]	0.0637	0.0563	0.072	0.0616	0.061	–	0.0555	0.0594	0.0652	0.0749	0.0616	0.0733	0.0537	0.0639	–	–	0.066	0.0564	–
MGESLFKGPRDYNPISSSICHLTNESDGHTTSLYGIGFGPFIITNKHLFRRNNGTLVVQSLHGVFKVKDTTTLQQHLVDGRDMIIIRMPKDFPPFPQKLKFREPQREERICLVTTNFQTKSMSSMVSDTSCTFPSGDGIKWKHWIQTKDGQCGSPLVSTRDGFIVGIHSASNFTNTNNYFTSVPKNFMELLTNQEAQQWVSGWRLNADSVLWGGHKVFMVKPEEPFQPVKEATQL [F140K]	0.0622	0.0756	–	–	–	0.0497	0.0599	0.0572	0.0645	0.0601	0.0653	–	–	–	–	–	–	0.0675	–
MGESLFKGPRDYNPISSSICHLTNESDGHTTSLYGIGFGPFIITNKHLFRRNNGTLVVQSLHGVFKVKDTTTLQQHLVDGRDMIIIRMPKDFPPFPQKLKFREPQREERICLVTTNFQTKSMSSMVSDTSCTFPSGDGIFWSHWIQTKDGQCGSPLVSTRDGFIVGIHSASNFTNTNNYFTSVPKNFMELLTNQEAQQWVSGWRLNADSVLWGGHKVFMVKPEEPFQPVKEATQL [K142S]	0.115	0.0707	0.0783	0.0649	–	0.0865	0.0799	–	0.0908	0.0492	–	0.0774	0.0745	–	–	–	–	–	–
MGESLFKGPRDYNPISSSICHLTNESDGHTTSLYGIGFGPFIITNKHLFRRNNGTLVVQSLHGVFKVKDTTTLQQHLVDGRDMIIIRMPKDFPPFPQKLKFREPQREERICLVTTNFQTKSMSSMVSDTSCTFPSGDGIFWKHWIQTKDGQCGSPLASTRDGFIVGIHSASNFTNTNNYFTSVPKNFMELLTNQEAQQWVSGWRLNADSVLWGGHKVFMVKPEEPFQPVKEATQL [V157A]	0.106	–	–	–	0.0199	–	–	0.0644	0.0947	0.073	0.0659	–	0.0649	0.0525	0.0641	–	0.039	0.0714	–
MGESLFKGPRDYNPISSSICHLTNESDGHTTSLYGIGFGPFIITNKHLFRRNNGTLVVQSLHGVFKVKDTTTLQQHLVDGRDMIIIRMPKDFPPFPQKLKFREPQREERICLVTTNFQTKSMSSMVSDTSCTFPSGDGIFWKHWIQTKDGQCGSPLVSTRDGFIVGIHSASNFTCTNNYFTSVPKNFMELLTNQEAQQWVSGWRLNADSVLWGGHKVFMVKPEEPFQPVKEATQL [N175C]	0.111	0.0667	–	–	0.046	0.0727	–	0.0592	0.0924	–	0.0618	0.0632	0.086	–	0.0646	0.0684	0.0562	0.0781	0.06
MGESLFKGPRDYNPISSSICHLTNESDGHTTSLYGIGFGPFIITNKHLFRRNNGTLVVQSLHGVFKVKDTTTLQQHLVDGRDMIIIRMPKDFPPFPQKLKFREPQREERICLVTTNFQTKSMSSMVSDTSCTFPSGDGIFWKHWIQTKDGQCGSPLVSTRDGFIVGIHSASNFTNTNNYCTSVPKNFMELLTNQEAQQWVSGWRLNADSVLWGGHKVFMVKPEEPFQPVKEATQL [F180C]	0.0862	–	–	0.0643	0.0516	–	–	0.0567	0.0778	0.0589	–	0.0717	–	0.0562	–	–	–	–	–
MGESLFKGPRDYNPISSSICHLTNESDGHTTSLYGIGFGPFIITNKHLFRRNNGTLVVQSLHGVFKVKDTTTLQQHLVDGRDMIIIRMPKDFPPFPQKLKFREPQREERICLVTTNFQTKSMSSMVDDTSCTFPSGDGIFWKHWIQTKDGQCGSPLVSTRDGFIVGIHSASNFTNTNNYFTSVPKNFMELLTNQEAQQWVSGWRLNADSVLWGGHKVFMVKPEEPFQPVKEATQL [S127D]	0.107	–	0.0753	–	0.0541	0.0973	0.0801	0.0562	0.0925	0.0479	0.0705	0.0914	–	0.0774	0.0709	0.0643	0.0594	–	–
